From the supplement of paper PMC3334620
In all, about 33,000 sequences were measured (“E-score (-0.5 to 0.5)”: median about -0.054, highest 2% from about 0.35 on). The list shows a part of the results.

Molecular target: T1, Stb5 (UniProt P38699)
T1 sequence: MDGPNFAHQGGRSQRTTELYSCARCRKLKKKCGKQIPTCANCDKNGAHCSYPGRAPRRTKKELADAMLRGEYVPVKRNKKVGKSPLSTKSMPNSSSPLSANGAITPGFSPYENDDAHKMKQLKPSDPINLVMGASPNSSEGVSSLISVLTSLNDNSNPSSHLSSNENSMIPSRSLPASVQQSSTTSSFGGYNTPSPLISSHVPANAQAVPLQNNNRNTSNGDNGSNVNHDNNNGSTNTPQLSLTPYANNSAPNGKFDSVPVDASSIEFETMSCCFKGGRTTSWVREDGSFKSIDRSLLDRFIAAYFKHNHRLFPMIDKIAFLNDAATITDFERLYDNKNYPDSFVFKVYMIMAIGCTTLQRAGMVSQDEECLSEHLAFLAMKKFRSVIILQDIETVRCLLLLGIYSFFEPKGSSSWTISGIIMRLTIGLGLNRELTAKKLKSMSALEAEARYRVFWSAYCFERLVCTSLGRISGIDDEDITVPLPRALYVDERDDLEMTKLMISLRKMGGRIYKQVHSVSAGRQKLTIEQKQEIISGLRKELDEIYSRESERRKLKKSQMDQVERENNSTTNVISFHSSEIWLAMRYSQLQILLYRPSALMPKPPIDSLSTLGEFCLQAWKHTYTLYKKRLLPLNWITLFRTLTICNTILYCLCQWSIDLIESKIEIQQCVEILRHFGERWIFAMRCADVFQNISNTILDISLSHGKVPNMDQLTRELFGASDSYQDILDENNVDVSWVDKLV
Assay: PBM E-score (8-mer binding enrichment) (E-score (-0.5 to 0.5)); higher = stronger / more preferred TF binding; most listed sequences are background and not binding sites
Conditions: protein concentration: 200 nM; construct: GST-full length
Outline: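 Each ungapped eight-base word and its reverse complement, pooled, received an E-score from the Universal PBM Analysis Suite. Underlying scans, normalised with masliner, recorded fluorescent anti-GST bound to GST-tagged yeast transcription factors. These were applied at about 100-200 nM to universal all-10-mer Agilent arrays double-stranded by primer extension.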

Sequence	PBM E-score
ACTTGCCA	-0.159
ATGTGAGG	-0.167
GAATTTTA	0.167
AGGGGGAT	-0.0737
ACTAGAAC	-0.0405
ATTTATTC	0.00246
GATCGATA	-0.179
GGTACATA	0.201
GAAAACGC	-0.0942
CCACAGAA	-0.0806
AACACGAT	0.0298
AATCGCAC	-0.0177
ATTGGGTA	-0.242
GGCCCTTA	0.0831
ACGTAATA	-0.11
GCAACTCA	-0.0746
ACAATAAC	0.0538
CCGGCGAC	0.201
AGGGTTCC	-0.0764
ACAAAAGG	0.0822
CTGAAGCA	-0.26
TAGCCTGA	-0.245
CCGCATCC	0.0876
CTACCCAG	-0.25
CACTTAGG	-0.0713

Sequence	PBM E-score
ATTATAGA	0.0974
CTCTTCGC	-0.0289
CAGGGGAG	-0.15
CGGTTACG	0.22
AAAAAACC	0.105
AGAGCCAA	-0.404
TGGGACCA	-0.16
GCTGGACA	-0.218
CTCCATAA	-0.0554
CTAAGACC	0.22
AAGTGCCG	0.409
GCGTGCAA	-0.143
CAGGAAGC	-0.293
AGATGTCC	0.0605
AAAACCGG	0.261
AGTGCCAC	-0.251
AAGCTGGG	-0.068
GAGTAAAA	-0.0321
ACTAAATG	-0.102
GTACGGTA	0.123
GGCAGGAA	-0.199
ATCCGAAA	0.173
ACCAAGAC	0.0173
GTAGGGAC	-0.04
GAGGCGGC	0.265

Sequence	PBM E-score
ACTGGTGC	0.0493
TAGCCTAA	-0.133
CATATGAG	-0.0773
AGCTATAT	-0.13
CGCTGAAA	-0.0059
CCCTTCCC	-0.167
GCCTCCTA	-0.0585
TCAATTCA	-0.101
GGGCGAGA	-0.236
CCGCGAGG	0.297
CTCTTCGA	0.00351
AGTCTCCC	-0.0651
AGCGGACG	0.284
CGGCCGAG	0.127
CCCCAAGC	-0.00416
TCAATAGA	-0.228
ACAACGCC	0.203
GAGAATGC	0.0403
CCTAGGGA	-0.0248
CACAATTC	-0.0913
GAGCGCCC	0.0509
TACATAAA	-0.151
AGTGCAAG	-0.0268
AGCGAGTC	-0.132
ATGGCCTC	-0.193

Sequence	PBM E-score
AACCGAGC	0.17
GCCCACGA	-0.243
AATACCCG	0.33
CTGGCAAA	-0.24
ATCTTCGA	-0.206
GTGCGATA	0.139
GCGTGAAA	0.0412
ACTCCAAT	-0.0633
ATGACTGC	-0.14
GAGTGTGC	-0.0762
CTGAACTC	-0.342
TCCTCCAA	-0.248
ATGACTTG	-0.187
ACTATGTA	-0.149
AGGTGTAA	0.0835
ATCTCTGG	-0.212
CGCTGGTC	0.0566
TGGTGACA	0.0421
CCAGACAG	-0.145
ATCGCGAT	-0.00155
ATCTGGCG	0.0981
CCTGTTAG	-0.039
ACTCGTAA	0.0379
CCAACAGC	-0.0163
GAGGCGGA	0.25

Sequence	PBM E-score
AAGTACCC	0.0204
CATATATC	0.127
GGGGCCGA	0.158
TAGATCCA	0.0564
CTGTGGCA	-0.279
AAGGTACT	-0.0323
ACTATCAC	-0.127
ACGGGGGC	0.186
CGTGATTC	0.0453
TCGCCACA	-0.0176
CATAGTAA	-0.181
CCTTTGAA	-0.208
ACTCCCCT	-0.0396
CGCCACAA	0.0469
GATCCTAC	-0.102
CAAAGTGC	0.0852
AAAAAATG	0.00429
GTTATAGA	-0.0682
CGGCGGTA	0.451
GGGAAGGA	-0.0839
CCAACGGC	0.256
ATCTAACA	-0.227
ATGGAGCG	-0.0248
AGTGGTCG	-0.0369
CCTATACG	-0.2

Sequence	PBM E-score
TAGTTCAA	-0.125
GGAGTCCC	-0.0299
AACTCACG	-0.131
TAGTGAGA	-0.143
GACCTTAC	0.0679
CGTGAATA	0.108
CCCGGTGC	0.315
CCCTATAC	-0.111
ATCGGACA	0.332
ACCCCAAG	-0.116
CGGAAGCA	0.152
ATTGGCGG	0.203
TCCGCAAA	0.177
GCGGCTGA	-0.119
CGGATTAG	0.117
AAGATCTA	-0.149
AACGTCCA	-0.0958
CGATCGCG	0.166
CGTGTTGC	0.124
AGTAACTG	-0.148
AGCAAACT	-0.0382
ACGGACAA	0.296
AAAATAGC	0.0371
ACTTTTTC	-0.0329
CAGCCTCA	-0.337

Sequence	PBM E-score
ATATTCAC	-0.0956
GGCGTACA	0.0284
ACGACTTC	-0.0712
CCACGTCC	0.0378
CACTTATC	-0.0756
CTGGGCAA	-0.0222
ACTGGTAG	-0.166
CAATTTAA	0.0424
CAAGGGGC	-0.167
TAATGACA	-0.0686
ACATCCGA	0.312
ACACAATG	-0.3
AAGACGCG	-0.0265
CCGCTACG	0.355
CGGTTCTC	0.065
GAGGCACC	0.179
ACCTGTTG	-0.058
AGATAGCC	0.0746
CCCGACGC	0.388
ATCTTCTG	0.111
CGCAGACC	0.00233
CGGCCCTC	0.16
